The compounds below were run against Stromelysin-1 (Homo sapiens, UniProt P08254).
Stromelysin-1, sequence (P08254 whole entry): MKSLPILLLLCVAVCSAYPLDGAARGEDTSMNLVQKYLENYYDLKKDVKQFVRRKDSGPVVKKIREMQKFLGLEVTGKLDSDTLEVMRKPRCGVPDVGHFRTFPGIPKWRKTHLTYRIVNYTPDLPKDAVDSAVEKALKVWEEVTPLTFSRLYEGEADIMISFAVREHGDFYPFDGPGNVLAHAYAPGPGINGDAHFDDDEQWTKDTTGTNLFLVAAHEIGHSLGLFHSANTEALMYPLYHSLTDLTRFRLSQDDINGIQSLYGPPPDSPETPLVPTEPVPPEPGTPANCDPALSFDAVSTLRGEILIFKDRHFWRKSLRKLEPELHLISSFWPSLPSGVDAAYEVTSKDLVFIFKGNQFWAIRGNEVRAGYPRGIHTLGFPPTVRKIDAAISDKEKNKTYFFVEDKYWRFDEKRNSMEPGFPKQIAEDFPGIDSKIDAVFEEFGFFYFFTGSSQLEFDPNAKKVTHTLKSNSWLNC

First: O=C(Nc1nnc(S)s1)N[C@@H](Cc1ccccc1)C(=O)N1CCCC1
Second: O=C(Nc1nnc(S)s1)N[C@@H](Cc1ccccc1)C(=O)O
The Ki of the first is 4.8-fold lower: 0.66 µM for the first, 3.2 µM for the second. The first binds more tightly here.

Compared with `O=C(NCCc1ccccc1)Nc1nnc(S)s1`, `O=C(NCCCc1ccccc1)Nc1nnc(S)s1` is 2.3-fold higher in Ki: 7 µM for the first, 16 µM for the second. The first binds more tightly here.

First: COc1ccc(NC(=O)Nc2nnc(S)s2)cc1
Second: O=C(NCc1ccccc1)Nc1nnc(S)s1
The Ki of the first is 4.3-fold higher: 69 µM for the first, 16 µM for the second.

Compared with `COC(=O)[C@H](Cc1ccccc1)NC(=O)Nc1nnc(S)s1`, `CN(C)C(=O)[C@H](Cc1ccccc1)NC(=O)Nc1nnc(S)s1` is 7.9-fold higher in Ki: 0.29 µM for the first, 2.3 µM for the second.

Going from `O=C(Nc1nnc(S)s1)N[C@@H](Cc1c(F)c(F)c(F)c(F)c1F)C(=O)N1CCN(c2ccccn2)CC1` to `CC(C)NC(=O)[C@H](Cc1ccccc1)NC(=O)Nc1nnc(S)s1`, the Ki rises from 0.014 µM to 1.3 µM (93-fold). The first binds more tightly here.

With `O=C(Nc1nnc(S)s1)N[C@@H](Cc1ccccc1)C(=O)NCc1ccccc1` the Ki was 0.51 µM.

— ChEMBL document CHEMBL1132172, “Synthesis of a series of stromelysin-selective thiadiazole urea matrix metalloproteinase inhibitors” (J Med Chem, 1999)
